In PMC4336329 (PLoS ONE, 2015):
Hit rate of the full screen: of about 310,000 compounds, about 2,200 (0.71%) showed an effect of 50% or more. The effect is printed as a negative number. Some of the results follow.

Target: human ether-à-go-go-related gene (hERG) potassium channel (human, UniProt Q12809)
Assay: primary screen, population patch clamp on CHO cells stably expressing hERG

Chain of human ether-à-go-go-related gene (hERG) potassium channel (Q12809 whole entry, looked up): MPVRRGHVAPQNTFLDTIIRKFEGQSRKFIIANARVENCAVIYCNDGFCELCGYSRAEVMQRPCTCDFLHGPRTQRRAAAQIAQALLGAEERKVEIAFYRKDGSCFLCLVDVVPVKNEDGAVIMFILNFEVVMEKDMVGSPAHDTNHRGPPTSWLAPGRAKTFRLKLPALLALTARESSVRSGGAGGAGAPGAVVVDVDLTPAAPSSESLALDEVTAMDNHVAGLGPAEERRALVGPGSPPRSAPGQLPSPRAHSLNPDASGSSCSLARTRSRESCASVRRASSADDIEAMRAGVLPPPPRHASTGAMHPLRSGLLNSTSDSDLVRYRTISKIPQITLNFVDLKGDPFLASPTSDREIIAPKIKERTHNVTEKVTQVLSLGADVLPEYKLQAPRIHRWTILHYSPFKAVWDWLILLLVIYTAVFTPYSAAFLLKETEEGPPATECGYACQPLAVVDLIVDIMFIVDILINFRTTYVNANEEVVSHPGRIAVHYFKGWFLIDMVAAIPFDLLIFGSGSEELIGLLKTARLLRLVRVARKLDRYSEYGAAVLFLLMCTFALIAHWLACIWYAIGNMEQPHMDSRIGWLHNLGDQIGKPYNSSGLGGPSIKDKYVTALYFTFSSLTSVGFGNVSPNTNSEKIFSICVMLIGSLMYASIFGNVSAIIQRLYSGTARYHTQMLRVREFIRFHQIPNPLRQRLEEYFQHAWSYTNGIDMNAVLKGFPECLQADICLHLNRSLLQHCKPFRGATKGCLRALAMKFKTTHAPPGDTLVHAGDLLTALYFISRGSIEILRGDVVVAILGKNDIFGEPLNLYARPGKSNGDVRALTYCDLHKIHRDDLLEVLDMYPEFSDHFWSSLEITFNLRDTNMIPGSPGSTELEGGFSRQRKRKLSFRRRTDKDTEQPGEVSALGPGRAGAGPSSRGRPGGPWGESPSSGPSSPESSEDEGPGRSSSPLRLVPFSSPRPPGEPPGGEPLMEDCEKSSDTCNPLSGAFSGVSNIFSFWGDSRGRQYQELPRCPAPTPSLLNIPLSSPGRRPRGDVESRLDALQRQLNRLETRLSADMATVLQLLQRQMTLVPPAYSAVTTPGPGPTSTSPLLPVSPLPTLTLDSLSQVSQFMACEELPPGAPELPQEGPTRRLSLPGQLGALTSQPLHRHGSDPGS

Compound | hERG current change (%, negative = inhibition) at 1uM [%]
CSc1nnc2n(C)c3c(c(=O)n12)C1(CCCC1)Cc1ccccc1-3 | 5.94
Nn1c(SCC(=O)N2CCCc3ccccc32)nnc1-c1ccccc1 | 7.71
COc1cccc(-c2csc(N3CCN(C(=O)NC45CC6CC(CC(C6)C4)C5)CC3)n2)c1 | 13.8
Nc1ncc(Br)cc1S(=O)(=O)NCCC(=O)N1CCN(c2ccccc2)CC1 | 9.75
CCOC(=O)CS(=O)(=O)CC(=O)Nc1ccc([N+](=O)[O-])cc1OC | 8.76
O=C(CCC(=O)OCC(F)(F)C(F)F)NCc1ccccc1 | -2.52
CC(Oc1ccc(Cl)cc1Cl)C(=O)NCCCn1ccnc1 (stereo not shown) | -15.2
Cc1cc(NC(=O)CSc2nc3cc(Cl)ccc3s2)no1 | 10.9
O=C(NCC(c1ccco1)N1CCN(c2ccccc2F)CC1)C(=O)NC1CCCCC1 (stereo not shown) | 19
CCN(CC(=O)Nc1c(F)cccc1F)C(=O)c1ccc(N2CCCC2=O)cc1 | 14
COc1cccc(CNC(=O)c2ccc(CS(=O)(=O)Cc3ccc(C)cc3)o2)c1 | 2.72
CCC(CC)CN1C(Nc2ccccc2)=NC[C@@H]1C | 3.45
CC1=CC=CN2C1=NC(=O)CC2(C)C(=O)N(CC(=O)NC1CCCC1)Cc1ccccc1 (stereo not shown) | 14.9
CC(=O)C1=C(O)C(=O)N(c2cccc(Br)c2)C1c1ccccc1Cl (stereo not shown) | 1.31
O=C(Nc1ccc(CCC(=O)N2CCCC2)cc1)c1ncn[nH]1 | 7.02
O=C(COc1ccc(Oc2ccccc2)cc1)NCc1cn2ccccc2n1 | -6.33
COc1ccc(OC)c(-c2csc(NC(=O)Cc3ccc(OC)c(OC)c3)n2)c1 | 3.16
CCc1ccc(Sc2cc(C(=O)NCCN3CCOCC3)c3ccccc3n2)cc1 | -6.51
N#CCCS(=O)(=O)c1nnnn1-c1ccccc1 | -0.802
CCN(c1ccccc1)S(=O)(=O)c1cc2c3c(c1)CCN3C(=O)CC2 | 10.1
COc1ccc(OC(C)C(=O)N2CCCc3ccccc32)cc1 (stereo not shown) | 17.3
CC/C(=C1/C(=O)CC(C)(C)C(C(=O)OC)C1=O)N1CCCC1 (stereo not shown) | 16.5

Compound | hERG current change (%, negative = inhibition) at 1uM [%]
CC1(C)Cc2c(sc3nc4n(-c5ccccc5)cnn4c(=O)c23)CO1 | 9.36
CCc1ccc2c(c1)/C(=N/OC)C(=O)N2 | 9.76
COc1ccc(CNc2cc(C)cc(C)c2)cc1OC | 10.1
CC(C)(C)c1ccc(C(=O)NCC2CCCN2S(=O)(=O)c2ccccc2)cc1 (stereo not shown) | 10.6
CCOC(=O)c1nn(-c2ccc(C)cc2)c(=O)c2c(N)scc12 | 1.06
COc1cccc(N2CCN(C3CC(=O)N(c4cccc(Cl)c4)C3=O)CC2)c1 (stereo not shown) | 7.12
Cc1cc(C)c(OCC(=O)OCC(=O)N(C)C2CCS(=O)(=O)C2)c(C)c1 (stereo not shown) | 12.3
CCC(C)NC(=O)c1ccc(N2CCC3(CC2)OCCO3)c([N+](=O)[O-])c1 (stereo not shown) | 16.8
CCOC(=O)c1c(CN2CCN(CCO)CC2)n(C)c2cc(Br)c(OC)cc12 | 9.82
C#CCNC(=O)C1=C[C@@H](c2coc3ccccc3c2=O)C[C@@H](OCc2ccc(CO)cc2)O1 | -1.27
COc1ccccc1CCNC(=O)c1ccoc1C | 7.59
COc1ccc(Br)cc1C(=O)Nc1cc(C)cc(C)c1 | 4.56
CCn1c2ccccc2c(=O)c2ccccc21 | 8.54
CNC(=S)N/N=C(\C)c1cccc([N+](=O)[O-])c1 | -0.488
COc1ccc(OC)c(S(=O)(=O)N2CCCCC2C(=O)O)c1 (stereo not shown) | 0.919
CCC(C)c1ccc(NC(=O)CN(C)CC(=O)Nc2cccc(OC)c2)cc1 (stereo not shown) | 6.64
CCN(CC)S(=O)(=O)c1ccc(F)c(C(=O)OC2CC(C)OC2=O)c1 (stereo not shown) | 7.46
Cc1ncc(CCl)c2c1OC(C)(C)OC2.Cl | 11.9
COc1ccc(CCNC(=O)Cn2c(-c3nonc3N)nc3ccccc32)cc1OC | 8.58
CCc1nnc(NC(=O)C(C)N2C(=O)C3C4C=CC(C4)C3C2=O)s1 (stereo not shown) | 3.03
COc1cccc(CN(C)c2nc(-c3cccs3)nc3ccccc23)c1 | -9.05
CCCC(C)C(=O)Nc1ccccc1C(=O)OCC (stereo not shown) | 7.75

Compound | hERG current change (%, negative = inhibition) at 1uM [%]
COc1cc2oc(-c3ccc(O)cc3)cc(=O)c2c(O)c1OC | -9.67
CCOc1ccc(-c2cc(C(=O)Nc3ccc4c(c3)OCCO4)c3ccccc3n2)cc1 | 13.3
COC(=O)c1c(NC(=O)c2ccccc2)sc(C(N)=O)c1C | 9.16
CSc1ccc(CNCC2CCCO2)cc1.Cl (stereo not shown) | 16.2
O=C(CN1C(=O)c2cccnc2Oc2ccc(Cl)cc21)NC1CCCCC1 | 5.72
Cc1nnc(SCC(=O)n2c3c(c4ccccc42)CCCC3)s1 | 10.7
O=C1CCCc2sccc2N1 | -4.07
CCOC(=O)C1=C(CSc2nncn2C)NC(=O)NC1c1cc(OCC)ccc1OCC (stereo not shown) | 5.34
COc1ccc(OC)c(C2=C/C(=C/c3ccccn3)C(=O)O2)c1 | -0.275
Cc1cc(C)c(NC(=O)/C(C#N)=C/c2ccc(OCc3ccc(F)cc3)cc2)c(C)c1 | 5.26
Cc1oc2c(CN3CCCC3)c(O)ccc2c(=O)c1-c1ccc(Br)cc1 | 6.1
CC(C)OC(=O)c1cccnc1SCC(=O)N(C)c1ccccc1 | -5.57
COc1ccc(-c2cc(C(=O)NCCN3CCOCC3)c3ccccc3n2)cc1OC | 12.6
CCOC(=O)N1CCN(C(=O)c2cnn(-c3ccccc3)c2NC(=O)c2ccccc2F)CC1 | 2.98
CN(C(=O)CS(=O)(=O)c1cn(CC(=O)N2CCCC2)c2ccccc12)c1ccccc1 | 4.2
Cn1c(N2CCOCC2)c(/C=N/OC(=O)c2ccc(F)cc2)c2ccccc21 | 15.8
CC1=C(C(=O)c2ccccc2)C(c2ccc(O)cc2)NC(=S)N1 (stereo not shown) | 7.64
Cc1cc(OCC(=O)Nc2cccnc2)c2c(C)cc(=O)oc2c1 | 12.7
CC1CCCC(C)N1CCNC(=O)CCn1nc(-c2ccccc2)ccc1=O (stereo not shown) | -16
Cc1ccccc1NC(=O)CCC(=O)N/N=C/c1c[nH]c2ccccc12 | 3.45
COc1ccc(CCNC(=O)C2(C)CCC(=O)N2Cc2ccc(C)cc2)cc1OC (stereo not shown) | 16.8
CC#CCN(CC#CC)S(=O)(=O)c1ccc(S(=O)(=O)N2CCOCC2)cc1 | -4.32

Compound | hERG current change (%, negative = inhibition) at 1uM [%]
Cc1ccc(C(=O)c2cc(Br)ccc2N)cc1 | 12.5
O=C(NCC(=O)N1CCc2ccccc2C1)c1ccccc1Cl | 4.85
O=C(CNC(=O)c1ccc2c(c1)OCCO2)N=Nc1c(O)[nH]c2ccccc12 | 11.7
CCOC(=O)c1[nH]c(=O)[nH]c1COC(=O)c1cc2ccccc2o1 | -4.24
CCn1c(SCC(=O)Nc2ccccc2N2CCOCC2)nnc1-c1ccccc1O | -14.5
CCc1ccc(-c2cc3c(=O)n(CC(=O)NCCN4CCCCC4C)nc(C)n3n2)cc1 (stereo not shown) | -4.97
O=[N+]([O-])c1cc(/C=N/N2CCN(c3ccccc3)CC2)ccc1Cl | 9.44
Cc1ccc(NC(=O)CC2SC3=NCCN3C2=O)cc1 (stereo not shown) | -0.178
Cc1nc(C(=O)NNC(=O)c2ccc(Cl)cc2)c(C(F)(F)F)o1 | 10
CN1/C(=C/C(=S)NC(=O)C2(C)CC2(Cl)Cl)C(C)(C)c2ccccc21 (stereo not shown) | 7.71
COc1ccc(C)cc1S(=O)(=O)Nc1cc2c3c(c1)CCC(=O)N3CCC2 | 11.1
N#Cc1nc(-c2ccc(F)cc2)oc1NCCN1CCOCC1 | 14.1
Cc1cccc(-c2nsc(SCC(=O)Nc3cc(C)on3)n2)c1 | 12.8
Cc1c(C)n(CCCN(C)C)c2ncnc(Nc3ccc(F)cc3)c12 | -3.3
CNS(=O)(=O)c1cc(-c2nnc(Nc3ccc(CC(N)=O)cc3)c3ccccc23)ccc1C | 14
COC(=O)c1cc(NC(=O)c2c(Cl)cnn2C)cc(C(=O)OC)c1 | 8.09
CC1=CC(C)(C)N2C(=O)C3(C(C#N)=C(N)OC4=C3C(=O)CC(C)(C)C4)c3c(C)c(C)cc1c32 (stereo not shown) | 0.778
CC(C)N(CCCNC(=O)C1CCN(S(=O)(=O)N2CCOCC2)CC1)Cc1ccccc1 | 7.47
COCCCNC(=O)Cc1ccc(-n2c(C)nc3cccnc32)cc1 | 4.61
Cc1[nH]c(=O)c(C#N)cc1-c1ccccc1 | -7.61
Cc1cc(C)c[n+](-c2nc3ccccc3nc2[N-]S(=O)(=O)c2cccs2)c1 | 2.45
O=C(NCc1ccc(F)cc1)C(c1ccncc1)N(C(=O)c1csnn1)C1CC1 (stereo not shown) | 3.06
